Data taken from the supplement of paper PMC4967469.
pIC50: −log10 of the molar value. A lower IC50 marks a more sensitive line; a fit beyond the top or the lowest dose is shown as a bound at that dose. AUC is the area under the same curve over the 256-fold range up to the top dose, as a fraction; the more sensitive the line, the further below 1. For some assays here: An inferred top dose is not printed in the source and was worked back from the curve model. For some assays here: Drugs with an entry number were screened twice under separate entries, and the two screens often disagree.

Assays:
Assay in all cases: Viability of human cancer cell lines after 72 h of drug (GDSC screen)
PI-103 = compound: Oc1cccc(-c2nc(N3CCOCC3)c3oc4ncccc4c3n2)c1 [PI-103]; conditions: top dose 10.24 µM
Description: (§1)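 Human cancer cell lines in 384-well plates, medium with 10% serum, drug for 72 h over a 256-fold dose range (nine 2-fold or five 4-fold steps up to the top dose). Adherent lines were fixed and stained with the nucleic acid dye Syto60, suspension lines read with resazurin; signal relative to control wells, capped at 0 and 100%. One two-parameter sigmoid per drug and line, fitted in a mixed model over all curves with the slope shared within a line.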

GSK690693 = compound: CCn1c(-c2nonc2N)nc2c(C#CC(C)(C)O)ncc(OC[C@H]3CCCNC3)c21 [GSK690693]; conditions: top dose 10.24 µM; top dose inferred
Description: as §1

UNC0638 = compound: COc1cc2c(NC3CCN(C(C)C)CC3)nc(C3CCCCC3)nc2cc1OCCCN1CCCC1 [UNC0638]
Description: as §1

WH-4-023 = compound: COc1ccc(N(C(=O)Oc2c(C)cccc2C)c2ccnc(Nc3ccc(N4CCN(C)CC4)cc3)n2)c(OC)c1 [WH-4-023]; conditions: top dose 5.12 µM; top dose inferred
Description: as §1

Tretinoin = compound: CC1=C(/C=C/C(C)=C/C=C/C(C)=C/C(=O)O)C(C)(C)CCC1 [Tretinoin]; conditions: top dose 10 µM; top dose inferred
Description: as §1

SB-505124 = compound: Cc1cccc(-c2[nH]c(C(C)(C)C)nc2-c2ccc3c(c2)OCO3)n1 [SB-505124]; conditions: top dose 10 µM; top dose inferred
Description: as §1

BX-795 = compound: O=C(NCCCNc1nc(Nc2cccc(NC(=O)N3CCCC3)c2)ncc1I)c1cccs1 [BX-795]; conditions: top dose 5 µM; top dose inferred
Description: as §1

[1] = top dose 20 µM, screen: GDSC drug entry 1236, top dose inferred
[2] = top dose 40 µM, screen: GDSC drug entry 245

| Cell Line | AUC (PI-103) | pIC50 (PI-103) | AUC (GSK690693) | pIC50 (GSK690693) | AUC (UNC0638; [1]) | pIC50 (UNC0638; [1]) | AUC (UNC0638; [2]) | pIC50 (UNC0638; [2]) | AUC (WH-4-023) | pIC50 (WH-4-023) | AUC (Tretinoin) | pIC50 (Tretinoin) | AUC (SB-505124) | pIC50 (SB-505124) | AUC (BX-795) | pIC50 (BX-795) |
| --- | --- | --- | --- | --- | --- | --- | --- | --- | --- | --- | --- | --- | --- | --- | --- | --- |
| MFM-223 (breast, adherent) | 0.786 | 5.36 | 0.829 | 5.20 | 0.988 | < 4.70 | 0.863 | 4.47 | 0.989 | < 5.29 | 0.968 | < 5.00 | 0.981 | < 5.00 | 0.888 | < 5.30 |
| MHH-PREB-1 (B-cell leukaemia, suspension) | 0.271 | 6.81 | 0.989 | < 4.99 | 0.661 | 5.48 | 0.539 | 5.50 | 0.833 | 5.55 | 0.989 | < 5.00 | 0.957 | < 5.00 | 0.888 | 5.34 |
| ML-2 (acute myeloid leukaemia, suspension) | 0.097 | > 7.40 | 0.837 | 5.24 | 0.826 | 4.99 | 0.624 | 5.28 | 0.99 | < 5.29 | 0.969 | < 5.00 | 0.986 | < 5.00 | 0.948 | < 5.30 |
| MLMA (hairy cell leukaemia, semi-adherent) | 0.162 | 7.23 | 0.781 | 5.37 | 0.769 | 5.12 | 0.616 | 5.28 | 0.654 | 6.06 | 0.986 | < 5.00 | 0.944 | < 5.00 | 0.891 | < 5.30 |
| MMAC-SF (melanoma, adherent) | 0.663 | 5.73 | 0.963 | < 4.99 | 0.814 | 4.94 | 0.751 | 4.86 | 0.967 | < 5.29 | 0.984 | < 5.00 | 0.964 | < 5.00 | 0.982 | < 5.30 |
| MN-60 (B-cell leukaemia, suspension) | 0.201 | 7.10 | 0.924 | < 4.99 | 0.871 | < 4.70 | 0.757 | 4.84 | 0.981 | < 5.29 | 0.975 | < 5.00 | 0.958 | < 5.00 | 0.984 | < 5.30 |
| MOLP-8 (myeloma, suspension) | 0.081 | > 7.40 | 0.635 | 5.83 | 0.615 | 5.59 | 0.528 | 5.53 | 0.948 | < 5.29 | 0.987 | < 5.00 | 0.891 | < 5.00 | 0.805 | 5.62 |
| MOLT-4 (lymphoblastic leukaemia, suspension) | 0.266 | 6.79 | 0.504 | 6.18 | 0.671 | 5.47 | 0.61 | 5.33 | 0.936 | < 5.29 | 0.974 | < 5.00 | 0.966 | < 5.00 | 0.706 | 5.98 |
| MONO-MAC-6 (acute myeloid leukaemia, suspension) | 0.266 | 6.88 | 0.805 | 5.26 | 0.816 | 4.92 | 0.618 | 5.27 | 0.971 | < 5.29 | 0.709 | 5.60 | 0.981 | < 5.00 | 0.394 | 6.80 |
| MPP-89 (mesothelioma, adherent) | 0.887 | < 4.99 | 0.982 | < 4.99 | 0.871 | < 4.70 | 0.959 | < 4.40 | 0.333 | 7.02 | 0.874 | < 5.00 | 0.971 | < 5.00 | 0.937 | < 5.30 |
| MRK-nu-1 (breast, suspension) | 0.585 | 5.97 | 0.99 | < 4.99 | 0.932 | < 4.70 | 0.878 | 4.46 | 0.811 | 5.61 | 0.987 | < 5.00 | 0.982 | < 5.00 | 0.98 | < 5.30 |
| MS-1 (small cell lung carcinoma, suspension) | 0.497 | 6.20 | 0.9 | < 4.99 | 0.844 | 4.91 | 0.586 | 5.38 | 0.99 | < 5.29 | 0.981 | < 5.00 | 0.99 | < 5.00 | 0.957 | < 5.30 |
| MSTO-211H (mesothelioma, adherent) | 0.836 | 5.23 | 0.991 | < 4.99 | 0.785 | 5.11 | 0.974 | < 4.40 | 0.922 | < 5.29 | 0.927 | < 5.00 | 0.99 | < 5.00 | 0.909 | < 5.30 |
| MV-4-11 (leukaemia, suspension) | 0.244 | 6.86 | 0.879 | 5.13 | 0.808 | 5.09 | 0.576 | 5.41 | 0.983 | < 5.29 | 0.085 | > 7.41 | 0.989 | < 5.00 | 0.162 | 7.42 |
| MZ1-PC (pancreas, adherent) | 0.436 | 6.39 | 0.894 | < 4.99 | 0.798 | 4.91 | 0.588 | 5.34 | 0.486 | 6.54 | 0.964 | < 5.00 | 0.977 | < 5.00 | 0.872 | < 5.30 |
| MZ2-MEL (melanoma, adherent) | 0.358 | 6.62 | 0.965 | < 4.99 | 0.874 | < 4.70 | 0.838 | 4.47 | 0.831 | 5.39 | 0.98 | < 5.00 | 0.97 | < 5.00 | 0.83 | 5.41 |
| Mo-T (hairy cell leukaemia, suspension) | 0.306 | 6.74 | 0.876 | < 4.99 | 0.811 | 4.96 | 0.685 | 5.08 | 0.983 | < 5.29 | 0.941 | < 5.00 | 0.977 | < 5.00 | 0.925 | < 5.30 |
